One may read the fraction remaining as what is left of the initial amount, in per cent. A word on the IC50: it is the midpoint of a concentration-inhibition curve.

Series [1] is described as follows: Chitin-binding assay with chitin beads. The note with it: 40 μM peptide, 60 μL chitin beads, buffer pH 8.0, room temperature, 4 h; elution 500 mM acetic acid pH 3.0; UPLC and MALDI-TOF MS.
Series [2] in a line: Heat stability assay. In kind it is physicochemical. As to conditions: 200 μM, water bath 100°C, 1 h; RP-UPLC/RP-HPLC.
Series [3] concerns trypsin. The series can be described thus: Endoproteolytic enzyme stability assay (trypsin). The note with it: 100 mM ammonium bicarbonate pH 7.8, 37°C, RP-UPLC, read-out: peptide remaining after trypsin digestion. The class given is in vitro ADME.
Series [4] concerns aminopeptidase I. The series is described as follows: Exoproteolytic enzyme stability assay (aminopeptidase). The note with it: 20 mM tricine, 0.05% BSA pH 8.0, 20 U/mL aminopeptidase I, 37°C, RP-UPLC, read-out: peptide remaining after aminopeptidase digestion. In kind it is in vitro ADME.
The test system of series [5] is carboxypeptidase A. The series can be described thus: Exoproteolytic enzyme stability assay (carboxypeptidase A). In kind it is in vitro ADME. The note with it: 50 mM Tris-HCl, 100 mM NaCl, 100 nM carboxypeptidase A, 37°C, RP-UPLC, read-out: peptide remaining after carboxypeptidase A digestion.
The test system of series [6] is Aspergillus niger. The series is described as follows: Micro-broth dilution assay, methylene blue read-out. The note with it: A. niger, spores in half-strength potato dextrose broth, 24 h, 25°C, absorbance 640 nm. In kind it is cell-based.
In series [7] the test system is Fusarium oxysporum. Described as above. The note with it: F. oxysporum, spores in half-strength potato dextrose broth, 24 h, 25°C, absorbance 640 nm. In kind it is cell-based.
For series [8], the system named is Curvularia lunata. The description is as above. In kind it is cell-based. The note with it: C. lunata, spores in half-strength potato dextrose broth, 24 h, 25°C, absorbance 640 nm.
Series [9] concerns Rhizoctonia solani. Described as above. As to conditions: R. solani, spores in half-strength potato dextrose broth, 24 h, 25°C, absorbance 640 nm. In kind it is cell-based.
In series [10] the test system is various fungal strains. The note with it: ref Fujimura et al., 2003; cited from earlier work.

Bridge positions count the residues as written; N and C are the ends. Ends that are not written are not given here.

With “DPTCSKLGD-FKCNPGRCCSKFNYCGSTAAYCGP-GNCIAQCP---- (bicyclic or more) [gB8, 8C-hevein-like peptide (ginkgotide) isolated from Ginkgo biloba leaves]”, the “chitin-binding (peptide in supernatant vs acidic elution buffer)” value in [1] is on record as “absent in the supernatant but were recovered in the acidic elution buffer”.

In the case of “DPTCSVLGDFKCNPGRCCSKFNYCGSTAAYCGPGNCIAQCP (disulfide 4-18, 12-24, 17-31, 36-40) [gB5]”, in series [2], the “peptide remaining after boiling water” value came out at 80%. For the same substance, the fraction remaining at 6 h, 200 μM in series [3], in series [4] and in series [5] was more than 95% throughout. For the same substance, the 50% inhibitory concentration (IC50) is 6.8 µg/mL in [6], 69.2 µg/mL in series [7], 10.0 µg/mL in series [8] and 20.0 µg/mL in series [9].

Consider “DPTCSKLGD-FKCNPGRCCSKFNYCGSTAAYCGR-GNCIAQCP---- (bicyclic or more) [gB3, 8C-hevein-like peptide (ginkgotide) isolated from Ginkgo biloba leaves]”, for which the “chitin-binding (peptide in supernatant vs acidic elution buffer)” value in series [1] is given as “absent in the supernatant but were recovered in the acidic elution buffer”.

As to “-AQCGAQGGGATCPGGLCCSQWGWCGSTPKYCG--AGCQSNCK---- (bicyclic or more) [Fa-AMP1, 8C-hevein-like peptide from buckwheat Fagopyrum esculentum]”, the IC50 range in series [10] was 11 to 36 µg/mL.
